Laboratory results from the supplement of paper PMC10126150.
Sequences with one replicate were seen in a single cluster, so their values are uncertain.

Tested on: ATP
Assay: switch fluorescence ratio, 500 uM ATP over buffer (Cy3 cluster intensity, sum of 5 cycles each) (fold (ratio)); higher = stronger signal-on switching upon ATP binding; sequences stand for … in TCGTCGGCAGCGTCAGATGTGTATAAGAGACAGTTTTTTTTTTTTTTTTTTTTTTTTT…TC
Conditions: aptamer strand: ATP DNA aptamer (quencher-CACCTGGGGGAGTATTGCGGAGGAAGG + anchor), 100 nM annealed; ATP concentration: 500 uM; one replicate
How it was run: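 Cy3-labelled switching-strand clusters on a modified Illumina MiSeq flow-cell were annealed to 100 nM quencher-labelled ATP aptamer, imaged in selection buffer, then imaged after 15 min with 500 uM ATP at 22 °C. Five buffer/ATP cycles ran, with NaOH stripping and re-annealing between them. The fluorescence ratio is summed target-cycle over summed buffer-cycle Cy3 intensity per cluster, averaged per switch-domain sequence. Clusters outside 100-1000 RFU were excluded.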
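Further: ATP exposure 15 min at 22 °C before imaging.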

Sequence | switch fluorescence ratio
AGTTGCGGAT | 1.02
AGTTGCTCAT | 0.999
AGTTGGACTC | 1.01
AGTTGGAGAA | 0.972
AGTTGGATAG | 1.03
AGTTGGCTGT | 0.958
AGTTGGGA | 0.992
AGTTGGGAGA | 1.04
AGTTGTATTG | 0.995
AGTTGTGTCC | 1.01
AGTTTCGAGT | 1.01
AGTTTCGTC | 0.96
AGTTTGAGCG | 1.04
AGTTTGAGT | 0.999
AGTTTGTCAC | 0.975
AGTTTGTGTA | 1.02
AGTTTTCAAC | 0.93
AGTTTTGCTA | 1.03
AGTTTTTGAC | 0.985
AGTTTTTGCC | 0.968
ATAAAATGCA | 0.999
ATAAACCTCT | 1.08
ATAAACTAAT | 0.974
ATAAAGAGGA | 1.02
ATAAAGGATT | 1.02
ATAAATAGCA | 1.04

Sequence | switch fluorescence ratio
ATAACAGCAC | 1.24
ATAACAGCTA | 0.987
ATAACCGAGA | 1.07
ATAACGGGAG | 1.01
ATAACGGGTC | 0.997
ATAACGTAGA | 1.02
ATAACGTTT | 1.01
ATAACTCAGC | 0.999
ATAACTTCAA | 1.02
ATAACTTGTG | 0.966
ATAAGACCAT | 1.03
ATAAGAGTTG | 0.939
ATAAGCGGCT | 1.01
ATAAGCGTC | 0.952
ATAAGGACG | 1.01
ATAAGGATC | 1.03
ATAAGTCTAT | 1.03
ATAAGTTCGG | 1.03
ATAATAAGTT | 1.02
ATAATCGGGT | 0.982
ATAATGCTTG | 0.997
ATAATGGTG | 1
ATAATGTTTG | 0.998
ATAATTGACT | 1.05
ATAATTGGTC | 0.977
ATAATTTCAG | 0.96

Sequence | switch fluorescence ratio
ATACAAACAC | 1.33
ATACAAGTGG | 1.01
ATACACGCCG | 1.08
ATACACGGGC | 1.11
ATACACTCAG | 1.07
ATACAGTAGT | 1.05
ATACATAAAC | 1.33
ATACATGTA | 0.989
ATACATTAAG | 1.11
ATACCCCGCG | 1.11
ATACCCGCAT | 2
ATACCGATGG | 1.01
ATACCGCTGT | 1.13
ATACCTAGT | 1.03
ATACCTCC | 1.51
ATACGAAATG | 1.08
ATACGCAGTT | 0.993
ATACGCCACC | 1.77
ATACGCCAGA | 1.09
ATACGGACAA | 1.34
ATACGGCGGG | 1
ATACGGTTAT | 1.03
ATACGTGTTC | 0.986
ATACTAAAAT | 1.04
ATACTAGTCG | 1.08
ATACTATAAT | 0.99

Sequence | switch fluorescence ratio
ATACTCAATG | 1.03
ATACTCGAGA | 1.05
ATACTGAGGG | 1.04
ATACTGAGTG | 0.993
ATACTGATCT | 0.958
ATACTGCGAA | 1.05
ATACTTACCT | 1.32
ATACTTAGAC | 1.07
ATAGAACTTA | 1.03
ATAGACTAT | 0.99
ATAGAGCGTC | 1.04
ATAGAGCTGT | 0.958
ATAGAGGG | 1.01
ATAGCCCACA | 0.983
ATAGCCCAGT | 1.01
ATAGCCTGAA | 1.02
ATAGCCTGAG | 1.13
ATAGCCTGGA | 0.997
ATAGCGGTGC | 1.18
ATAGCGTGCG | 0.995
ATAGCTATTC | 1.1
ATAGCTCGCA | 1.01
ATAGCTGCAG | 1.02
ATAGGAGCCC | 1.01
ATAGGATATT | 0.981
ATAGGCAGTT | 0.966

Sequence | switch fluorescence ratio
ATAGGCCACG | 1.02
ATAGGGCAAC | 0.965
ATAGGGGCCT | 1.03
ATAGGGTAAA | 0.965
ATAGGGTAAC | 1
ATAGGGTAGG | 1
ATAGGGTAGT | 1.02
ATAGGTGCG | 1
ATAGTACTGG | 1.04
ATAGTGATCT | 1
ATAGTGGCA | 1.02
ATAGTGGGTA | 0.966
ATAGTGTGTC | 0.923
ATAGTTACTA | 0.996
ATATAAAAGC | 1.02
ATATAAGTAC | 1.41
ATATACACTA | 1.11
ATATACTCGA | 1.09
ATATACTTAA | 1.04
ATATAGAGGC | 1.06
ATATAGATGT | 0.974
ATATAGGTAC | 1.05
ATATAGTCG | 0.988
ATATATTTCC | 1.06
ATATCAGAAT | 1.04
ATATCAGTC | 1.04

Sequence | switch fluorescence ratio
ATATCCATGC | 1.05
ATATCCGGAT | 1.03
ATATCGAGAT | 0.958
ATATCGAGTC | 1.06
ATATCTTACC | 1.03
ATATCTTAG | 1.04
ATATGAAGCA | 0.982
ATATGACAGT | 1.04
ATATGATCTT | 0.981
ATATGCAAAA | 1.02
ATATGCGGTC | 1.03
ATATGGAGGA | 1.01
ATATGGTCC | 0.985
ATATGGTGAG | 0.953
ATATGGTGCA | 1.05
ATATGTAGGG | 0.985
ATATGTTCAC | 1.02
ATATGTTCGG | 1.01
ATATGTTGGT | 1.04
ATATTAGGG | 0.964
ATATTATAGA | 1.05
ATATTCGCCA | 1.02
ATATTCGCTT | 1.03
ATATTCTGGA | 0.996
ATATTGAAAA | 1.01
ATATTGGGAT | 0.981

Sequence | switch fluorescence ratio
ATATTGTA | 1.03
ATATTGTAG | 0.989
ATATTTCG | 1.03
ATATTTCGTT | 0.998
ATATTTGACT | 1
ATATTTGGC | 0.897
ATATTTGTCG | 1.01
ATCAAAAGA | 1.02
ATCAAAAGGG | 1.01
ATCAAACCAT | 1.08
ATCAAACCGC | 1.32
ATCAAAGCAT | 0.967
ATCAAAGCT | 1.05
ATCAACGAGG | 1.04
ATCAAGCAAT | 4.06
ATCAAGGTAG | 1.02
ATCAATATAC | 1.79
ATCACAAAAG | 0.965
ATCACATCGC | 1.03
ATCACATGC | 1.06
ATCACCTTGC | 2.34
ATCACTAGTC | 1.02
ATCACTCCCT | 1.49
ATCAGAAATC | 1.05
ATCAGAGACT | 1.01
ATCAGCAGAG | 1.09

Sequence | switch fluorescence ratio
ATCAGCGTGC | 1.02
ATCAGGATTC | 1.03
ATCAGGCAGG | 1.06
ATCAGGGCTG | 0.949
ATCAGGGGCC | 1.01
ATCAGGTA | 1.02
ATCAGGTGGG | 1.15
ATCAGGTTTT | 1.04
ATCAGTAGCT | 1.03
ATCAGTTGCT | 1.01
ATCATATGCG | 0.972
ATCATCCCTG | 0.995
ATCATGAAAT | 0.975
ATCATGATT | 0.984
ATCATTACTG | 1.08
ATCATTATTT | 1.02
ATCATTCTGC | 1.01
ATCCAATCCC | 1.01
ATCCAGTAGA | 1
